By IC50 is meant the dose at which the fit gives 50% viability; a limit (>, <) means that the fit lies beyond the doses tested. For AUC the same curve is integrated over the 256-fold range of doses and scaled to a fraction: 1 means no effect, lower means more sensitive. For some of these results: Where the top dose is marked as inferred, it was derived from the fitted curves, not read from the paper. For some of these results: Where an entry number is given, a second screen of the drug exists; the two often differ.
Legend:
Test in all cases: Viability of human cancer cell lines after 72 h of drug (GDSC screen)
VNLG/124 = compound: CCCC(=O)OCc1ccc(OC(=O)/C=C(C)/C=C/C=C(C)/C=C/C2=C(C)CCCC2(C)C)cc1 [VNLG/124]; conditions: top dose 5.12 µM; top dose inferred
Experimental: (§1)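 Human cancer cell lines in 384-well plates, medium with 10% serum, drug for 72 h over a 256-fold dose range (nine 2-fold or five 4-fold steps up to the top dose). Adherent lines were fixed and stained with the nucleic acid dye Syto60, suspension lines read with resazurin; signal relative to control wells, capped at 0 and 100%. One two-parameter sigmoid per drug and line, fitted in a mixed model over all curves with the slope shared within a line.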

NSC-87877 = compound: O=S(=O)(O)c1ccc2cc(N=Nc3cc(S(=O)(=O)O)c4cccnc4c3O)ccc2c1 [NSC-87877]; conditions: top dose 16 µM; top dose inferred
Experimental: as §1

LAQ824 = compound: O=C(/C=C/c1ccc(CN(CCO)CCc2c[nH]c3ccccc23)cc1)NO [LAQ824]; conditions: top dose 1.024 µM; top dose inferred
Experimental: as §1

OSI-930 = compound: O=C(Nc1ccc(OC(F)(F)F)cc1)c1sccc1NCc1ccnc2ccccc12 [OSI-930]; conditions: top dose 10.24 µM
Experimental: as §1

Tamoxifen = compound: CC/C(=C(\c1ccccc1)c1ccc(OCCN(C)C)cc1)c1ccccc1 [Tamoxifen]; conditions: top dose 5 µM
Experimental: as §1

HG-5-88-01 = compound: COc1cc(N2CCC(C(N)=O)CC2)ccc1Nc1nc(N)c(Cl)c(Nc2ccccc2S(=O)(=O)C(C)C)n1 [HG-5-88-01]; conditions: top dose 10 µM; top dose inferred
Experimental: as §1

Masitinib = compound: Cc1ccc(NC(=O)c2ccc(CN3CCN(C)CC3)cc2)cc1Nc1nc(-c2cccnc2)cs1 [Masitinib]; conditions: top dose 20 µM
Experimental: as §1

BX-912 = compound: O=C(Nc1cccc(Nc2ncc(Br)c(NCCc3cnc[nH]3)n2)c1)N1CCCC1 [BX-912]; conditions: top dose 10.24 µM; top dose inferred
Experimental: as §1

Bleomycin = compound: Cc1c(N)nc([C@H](CC(N)=O)NC[C@H](N)C(N)=O)nc1C(=O)N[C@H](C(=O)N[C@H](C)[C@@H](O)[C@H](C)C(=O)N[C@H](C(=O)NCCc1nc(-c2nc(C(=O)NCCC[S+](C)C)cs2)cs1)[C@@H](C)O)[C@@H](OC1OC(CO)C(O)C(O)C1OC1OC(CO)C(O)C(OC(N)=O)C1O)c1cnc[nH]1 [Bleomycin]
Experimental: as §1

Elesclomol = compound: CN(NC(=O)CC(=O)NN(C)C(=S)c1ccccc1)C(=S)c1ccccc1 [Elesclomol]; conditions: top dose 0.2 µM; top dose inferred
Experimental: as §1

[1] = top dose 50 µM, screen: GDSC drug entry 1378, top dose inferred
[2] = top dose 64 µM, screen: GDSC drug entry 190

Cell Line	AUC (VNLG/124)	IC50 (VNLG/124)	AUC (NSC-87877)	IC50 (NSC-87877)	AUC (LAQ824)	IC50 (LAQ824)	AUC (OSI-930)	IC50 (OSI-930)	AUC (Tamoxifen)	IC50 (Tamoxifen)	AUC (HG-5-88-01)	IC50 (HG-5-88-01)	AUC (Masitinib)	IC50 (Masitinib)	AUC (BX-912)	IC50 (BX-912)	AUC (Bleomycin; [1])	IC50 (Bleomycin; [1])	AUC (Bleomycin; [2])	IC50 (Bleomycin; [2])	AUC (Elesclomol)	IC50 (Elesclomol)
NCI-H841 (small cell lung carcinoma, adherent)	0.982	> 5.12 µM	0.987	> 16 µM	0.712	0.256 µM	0.959	> 10.2 µM	0.987	> 5 µM	0.986	> 10 µM	0.796	9.4 µM	0.965	> 10.2 µM	0.553	4.35 µM	0.897	> 64 µM	0.407	0.00695 µM
NCI-H1155 (large cell lung carcinoma, suspension)	0.991	> 5.12 µM	0.989	> 16 µM	0.735	0.258 µM	0.965	> 10.2 µM	0.986	> 5 µM	0.993	> 10 µM	0.932	> 20 µM	0.959	> 10.2 µM	0.851	28.4 µM	0.885	48.4 µM	0.355	0.00539 µM
NCI-H1304 (small cell lung carcinoma, suspension)	0.985	> 5.12 µM	0.973	> 16 µM	0.539	0.0827 µM	0.971	> 10.2 µM	0.974	> 5 µM	0.902	> 10 µM	0.923	> 20 µM	0.665	1.92 µM	0.719	13.8 µM	0.533	4.94 µM	0.492	0.0118 µM
NCI-H1395 (lung adenocarcinoma, adherent)	0.98	> 5.12 µM	0.981	> 16 µM	0.904	> 1.02 µM	0.957	> 10.2 µM	0.976	> 5 µM	0.98	> 10 µM	0.911	> 20 µM	0.953	> 10.2 µM	0.4	1.52 µM	0.874	> 64 µM	0.522	0.0146 µM
NCI-H1436 (small cell lung carcinoma, suspension)	0.986	> 5.12 µM	0.969	> 16 µM	0.566	0.0995 µM	0.983	> 10.2 µM	0.93	> 5 µM	0.947	> 10 µM	0.894	> 20 µM	0.853	9.85 µM	0.931	> 50 µM	0.979	> 64 µM	0.956	> 0.2 µM
NCI-H1437 (lung adenocarcinoma, adherent)	0.981	> 5.12 µM	0.927	> 16 µM	0.323	0.0201 µM	0.944	> 10.2 µM	0.98	> 5 µM	0.841	7.35 µM	0.829	13.1 µM	0.936	> 10.2 µM	0.916	> 50 µM	0.287	0.975 µM	0.801	0.102 µM
NCI-H1563 (lung adenocarcinoma, adherent)	0.98	> 5.12 µM	0.985	> 16 µM	0.863	> 1.02 µM	0.985	> 10.2 µM	0.941	> 5 µM	0.934	> 10 µM	0.864	> 20 µM	0.878	> 10.2 µM	0.931	> 50 µM	0.691	15.3 µM	0.345	0.00425 µM
NCI-H1568 (lung adenocarcinoma, adherent)	0.976	> 5.12 µM	0.981	> 16 µM	0.367	0.0249 µM	0.963	> 10.2 µM	0.94	> 5 µM	0.916	> 10 µM	0.948	> 20 µM	0.927	> 10.2 µM	0.372	1.27 µM	0.464	3.12 µM	0.8	0.126 µM
NCI-H1623 (lung adenocarcinoma, adherent)	0.981	> 5.12 µM	0.98	> 16 µM	0.637	0.167 µM	0.975	> 10.2 µM	0.98	> 5 µM	0.916	> 10 µM	0.973	> 20 µM	0.98	> 10.2 µM	0.561	4.75 µM	0.767	28.9 µM	0.755	0.0817 µM
NCI-H1648 (lung adenocarcinoma, adherent)	0.964	> 5.12 µM	0.979	> 16 µM	0.478	0.0554 µM	0.938	> 10.2 µM	0.983	> 5 µM	0.666	1.87 µM	0.89	> 20 µM	0.911	> 10.2 µM	0.866	49.4 µM	0.687	13.8 µM	0.842	0.154 µM

From the supplement of paper PMC4967469
